Reference: PubChem BioAssay (NCATS)
“And” between values parts separate entries of the source, which are not always exact repeats. Identical values can stand only once. The shares of active, inactive and inconclusive entries below differ from those in the screen. For some of these results: Where the call is inconclusive, the potency comes from a doubtful curve fit. The source made the active and inactive calls. The call rests on the fitted dose curve; in most records, active means well fitted curve in the direction sought with a large enough effect; inconclusive means small, poorly fitted or top-dose-only effect, or another doubt; inactive means no such curve, though single readings can be large; an effect the other way counts as inactive or inconclusive.

How the values were obtained:
[1] = Viability qHTS for spleen associated tyrosine kinase inhibitor (SYKi) naive MV4-11 cells (AID 1963823); conditions: MV4-11 AML viability, CellTiter-Glo luminescence, 72 h; series mostly up to 45 µM; further: potency means the concentration at half of the fitted maximal effect; nearly all actives have a fitted effect of over 40% in size
Procedure, shortened: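 qHTS, SYK inhibitor-naive MV4-11; 500 cells/well; 72 hr compound exposure, 37 C; CellTiter-Glo added, 10 min RT; luminescence read.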

[2] = Viability qHTS for spleen associated tyrosine kinase inhibitor (SYKi) drug resistant MV4-11 cells (AID 1963824); further: potency means the concentration at half of the fitted maximal effect; nearly all actives have a fitted effect of over 35% in size
Procedure, shortened: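 SYK inhibitor-resistant MV4-11 AML cells, 500 per well, added to predispensed compounds and incubated 72 hr at 37 C, 5% CO2. Viability measured by CellTiter-Glo luminescence after 10 min at room temperature.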

[3] = Quantitative highthroughput screen to assess conditional lethalithy of NOMO1 cells grown in RPMI1640 with untreated serum (RPMI+s) (AID 1963876); conditions: NOMO1 AML cells in RPMI+serum, CellTiter-Glo viability, 48 h; viability: at 45.8 µM (top of the series); further: nearly all actives have a fitted effect of over 35% in size; further: potency means the concentration at half of the fitted maximal effect
Procedure, shortened: (§1)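 Each medium arm—HPLM with 10% dialyzed FBS, or RPMI1640 with 5 mM glucose and 10% untreated or dialyzed FBS—was screened against an 11-point, 3-fold compound titration for 48 h at 37 °C, with CellTiter-Glo luminescence as endpoint.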

[4] = Quantitative highthroughput screen to assess conditional lethalithy of NOMO1 cells grown in RPMI1640 with dialyzed fetal bovine serum (RPMI+ds) (AID 1963877); further: potency means the concentration at half of the fitted maximal effect; nearly all actives have a fitted effect of over 30% in size
Procedure, shortened: as §1

[5] = Quantitative highthroughput screen to assess conditional lethalithy of NOMO1 cells grown in Human Plasma-Like Medium with dialyzed fetal bovine serum (HPLM+ds) (AID 1963878); conditions: NOMO1 AML cells in HPLM+ds, CellTiter-Glo viability, 48 h; viability: at 45.8 µM (top of the series); further: potency means the concentration at half of the fitted maximal effect; nearly all actives have a fitted effect of over 35% in size
Procedure, shortened: as §1

[6] = Quantitative highthroughput screen to assess conditional lethalithy of SEM cells grown in Human Plasma-Like Medium with dialyzed fetal bovine serum (HPLM+ds) (AID 1963882); further: nearly all actives have a fitted effect of over 35% in size
Procedure, shortened: as §1

[7] = Quantitative highthroughput screen to assess conditional lethalithy of SEM cells grown in RPMI1640 with unreated serum (RPMI+s) (AID 1963883); conditions: SEM B-ALL cells, CellTiter-Glo viability, 48 h; viability: at 45.8 µM (top of the series); further: nearly all actives have a fitted effect of over 35% in size; further: potency means the concentration at half of the fitted maximal effect
Procedure, shortened: as §1

[8] = Quantitative highthroughput screen to assess conditional lethalithy of SEM cells grown in RPMI1640 with dialyzed fetal bovine serum (RPMI+ds) (AID 1963884); conditions: SEM B-ALL cells, RPMI+dialyzed FBS, CellTiter-Glo viability, 48 h; viability: at 45.8 µM (top of the series); further: nearly all actives have a fitted effect of over 35% in size; further: potency means the concentration at half of the fitted maximal effect
Procedure, shortened: as §1

[9] = Cellular viability qHTS for adrenocortical cancer (ACC) cell line SW-13 (AID 1963989); conditions: SW-13 ACC cells viability, CellTiter-Glo, 48 h; activity (max response): stronger effect = lower value; further: potency means the concentration at half of the fitted maximal effect; nearly all actives have a fitted effect of over 65% in size
Procedure, shortened: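 Viability was read as CellTiter-Glo luminescence after 48 h compound treatment (up to 46 uM final) of SW-13 cells grown serum-free; titration curves were fit with a four-parameter logistic model to give IC50 and efficacy.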

[10] = Cellular viability qHTS for adrenocortical cancer (ACC) cell line NCI-H295R (AID 1963990); conditions: CellTiter-Glo ATP luminescence, 48 h; series mostly up to 46.1 µM; further: potency means the concentration at half of the fitted maximal effect; nearly all actives have a fitted effect of over 60% in size
Procedure, shortened: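 CellTiter-Glo ATP luminescence, read 48 h after compound addition, measured viability of NCI-H295R adrenocortical cells grown serum-free with ITS. Final concentrations spanned up to 46 uM. Data normalized to DMSO and doxorubicin, fitted for IC50 and maximal response.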

[11] = Quantitative highthroughput screen to assess conditional lethalithy of P12 Ichikawa cells grown in RPMI1640 with untreated serum (RPMI+s) (AID 1963881); conditions: Potency: viability
Procedure, shortened: as §1
Tags describe the fitted curve by direction and shape.

| Compound | Potency [1] | Potency [2] | Potency [3] | Potency [4] | Potency [5] | Potency [6] | Potency [7] | Potency [8] | Potency [9] | Potency [10] | Potency [11] |
| --- | --- | --- | --- | --- | --- | --- | --- | --- | --- | --- | --- |
| COc1cc(C(C)=O)ccc1OCCCN1CCC(c2noc3cc(F)ccc23)CC1 | inconclusive: 16.8 µM [cytotoxic, single point] | inconclusive: 33.5 µM [cytotoxic, single point] | inactive | inconclusive: 20.9 µM [cytotoxic, partial curve, poor fit] | inconclusive: 33.2 µM [cytotoxic, partial curve, poor fit] | inactive | inactive | inactive | inconclusive: 29.1 µM [cytotoxic, partial curve, poor fit] |  |  |
| O=Nc1c(-c2c(O)[nH]c3cc(Br)ccc23)[nH]c2ccccc12 | inconclusive: 0.105 µM [cytotoxic, full curve] | inconclusive: 0.263 µM [cytotoxic, full curve] | active: 14.8 µM | active: 10.5 µM | active: 5.9 µM |  |  | active: 0.833 µM |  | active: 10 µM |  |
| CO[C@@H]1[C@H](N(C)C(=O)c2ccccc2)C[C@H]2O[C@]1(C)n1c3ccccc3c3c4c(c5c6ccccc6n2c5c31)C(=O)NC4 | inconclusive: 20.6 nM [cytotoxic, full curve] and inconclusive: 33.2 nM [cytotoxic, full curve] | active: 51.7 nM and active: 59 nM | inconclusive: 7.43 µM [cytotoxic, full curve] | inconclusive: 5.26 µM [cytotoxic, full curve] | inconclusive: 4.69 µM [cytotoxic, full curve] |  | active: 0.743 µM | active: 0.743 µM | inconclusive: 5.01 µM [cytotoxic, partial curve] |  | inconclusive: 2.64 µM [cytotoxic, full curve] |
